Measured values: US7517523B2, “Anti-MIF antibodies” (Cytokine PharmaSciences, Inc., priority 1993, dated 2009)

B1: rhuMIF: recombinant human MIF (Jurkat T-cell cDNA) expressed in E. coli from pET11b (protein)
chain: PMFIVNTNVPRASVPDGFLSELTQQLAQATGKPPQYIAVHVVPDQLMAFGGSSEPCALCSLHSIGKIGGAQNRSYSKLLCGLLAERLRISPDRVYINYYDMNAANVGWNNSTFA
B2: IL-6: recombinant murine IL-6 (protein, UniProt P08505 25-211, looked up)
Interleukin-6: FPTSQVRRGDFTEDTTPNRPVYTTSQVGGLITHVLWEIVEMRKELCNGNSDCMNNDDALAENNLKLPEIQRNDGCYQTGYNQEICLLKISSGLLEYHSYLEYMKNNLKDNKKDKARVLQRDTETLIHIFNQEVKDLHKIVLPTPISNALLTDKLESQKEWLRTKTIQFILKSLEEFLKVTLRSTRQT
B3: IL-1β: recombinant murine IL-1β (protein, UniProt P10749 118-269, looked up)
Interleukin-1 beta: VPIRQLHYRLRDEQQKSLVLSDPYELKALHLNGQNINQQVIFSMSFVQGEPSNDKIPVALGLKGKNLYLSCVMKDGTPTLQLESVDPKQYPKKKMEKRFVFNKIEVKSKVEFESAEFPNWYISTSQAEHKPVFLGNNSGQDIIDFTMESVSS

Key:
Type in all cases: cell-based, mouse
[1] = test system: RAW 264.7 macrophages; assay: MIF secretion by RAW 264.7 macrophages stimulated with LPS or cytokines (Western blotting); conditions: 12 h; for MIF production: 1 or 10 ng/ml
Procedure: After 3 h of incubation at 37° C. in a humidified atmosphere with 5% CO2, nonadherent cells were removed and wells were washed twice with RPMI/1% FBS. Cells then were incubated for 12 h with LPS (at concentrations ranging from 1 pg/ml to 1 μg/ml) or with cytokines (1 or 10 ng/ml for TNFα, IL-1β, and IL-6, and 10, 100 or 1000 IU/ml for IFNγ) diluted in RPMI/1% FBS. For time-course experiments, conditioned media of parallel cultures were removed at 3, 6, 9, 12 and 15 h intervals after LPS stimulation. […] Cells were incubated for 12 h either with LPS or with IFNγ plus LPS. When co-stimulated with IFNγ and LPS, cells were first incubated for an hour with IFNγ (100 IU/ml) before addition of LPS at the indicated concentrations. At the end of each experiment, cell-culture media were collected, centrifuged (10 min at 800 g), and supplemented with PMSF (1 mM). Supernatants then were concentrated 10-fold by membrane filtration (10 kD cut-off) (Centricon-10, Amicon, Beverly, N.Y.). Cellular RNA was extracted from adherent cells.
For Western blotting, samples were resolved on 18% SDS polyacrylamide gels under reducing conditions and transferred onto nitrocellulose membrane (Schleicher and Schuell, Keene, N.H.) at 50 V and 150 mA for 16 h. Membranes were blocked with 500 mM NaCl, 50 mM Tris-Base, pH 7.5 buffer containing 5% nonfat dry milk and 0.05% Tween-20 and incubated first with polyclonal rabbit anti-rMIF serum and then with horseradish peroxidase-conjugated igoat anti-rabbit IgG antibody (each diluted 1:1000 in 500 mM NaCl, 50 mM Tris-Base, pH 7.5 buffer with 1% BSA and 0.05% Tween-20). […] Incubations were for 1 h each. MIF was visualized by development with chloronaphthol/H2O2 or with TMB substrate. Serum MIF bands were quantified by laser densitometry (Shimadzu FDU-3, CS-9000U, Braintree, Mass.). Faint densitometric signals in the MIF region were detected in most sera prior to LPS administration (0 h). […] Each plotted point is the mean±SEM of individual sera from 2 to 5 animals.

[2] = test system: RAW 264.7 macrophages; assay: Steroid-induced MIF secretion by RAW 264.7 macrophages; conditions: for Range of Steroid Concentrations Inducing MIF in RAW 264.7 Macrophages: 12-15 h; for MIF secretion by murine macrophages after stimulation: RAW 264.7 macrophages and/or elicited peritoneal macrophages
[3] = test system: RAW 264.7 macrophages; assay: MIF-induced secretion of TNFα by RAW 264.7 macrophages (L929 cell cytotoxicity); conditions: 12-14 h, difference to non-stimulated control, mean ± SEM
Procedure: Cells were incubated for 12-14 hours with various doses of MIF diluted in RPMI/1% FBS. At the end of each experiment, cell culture media were collected, centrifuged (10 min at 800 g), and supplemented with 1 mM PMSF. MIF-induced TNFα activity was measured immediately afterwards.
Cells (4×10^6/well) were processed as described above and stimulated for 12 h with rMIF at specified concentrations ranging from 100 pg/ml to 1 μg/ml. At 1 μg/ml of rMIF, LPS contamination was 9 pg/ml as assessed by Limulus assay. To neutralize this minute amount of LPS, rMIF was preincubated for 1 h at 37° C. with polymyxin B (1 μg/ml). MIF-induced TNFα activity in cell-culture supernatant was quantitated by L929 cell cytotoxicity (Wolpe et al., 1988, J. Exp. Med. 167: 570).

| Molecule | Range of Steroid Concentrations Inducing MIF in RAW 264.7 Macrophages [2] | MIF secretion by murine macrophages after stimulation [2] | further results |
| --- | --- | --- | --- |
| TNFα: recombinant murine TNFα |  |  | Lowest concentration effective in inducing MIF secretion [1]: 1 ng/mL |
| C[C@]12CCC(=O)C=C1CC[C@@H]1[C@@H]2[C@@H](O)C[C@@]2(C)[C@H]1CC[C@]2(O)[C@@H](O)CO [4-pregnene-11β,17α,20α,21-tetrol-3-one] | 10^−10 to 10^−14 M | secreted |  |
| C[C@]12CC[C@@H](O)C[C@H]1CC[C@@H]1[C@@H]2[C@@H](O)C[C@@]2(C)[C@H]1CC[C@]2(O)C(=O)CO [5β-Pregnane-3α,11β,17α,21-tetrol-20-one] | 10^−8 to 10^−14 M | secreted |  |
| C[C@@H]1C[C@H]2[C@@H]3CCC4=CC(=O)C=C[C@]4(C)[C@@]3(F)[C@@H](O)C[C@]2(C)[C@@]1(O)C(=O)CO [Dexamethasone] | 10^−8 to 10^−14 M |  |  |
| CC(=O)[C@H]1CC[C@H]2[C@@H]3CCC4=CC(=O)CC[C@]4(C)[C@H]3CC[C@]12C [Progesterone] | 10^−4 to 10^−12 M | secreted |  |
| CC#C[C@]1(O)CC[C@H]2[C@@H]3CCC4=CC(=O)CCC4=C3[C@@H](c3ccc(N(C)C)cc3)C[C@@]21C [RU-38486 (mifepristone), mifepristone] | 10^−8 to 10^−14 M | secreted |  |
| IFNγ: recombinant murine IFNγ |  |  | Lowest concentration effective in inducing MIF secretion [1]: 10 IU/ml |
| C[C@]12CCC(=O)C=C1CC[C@@H]1[C@@H]2[C@@H](O)C[C@@]2(C)[C@H]1CC[C@]2(O)C(=O)CO [Hydrocortisone] | 10^−8 to 10^−12 M | secreted |  |
| C[C@]12CCC(=O)C=C1CC[C@@H]1[C@@H]2[C@@H](O)C[C@]2(C=O)[C@@H](C(=O)CO)CC[C@@H]12 [Aldosterone] | 10^−10 to 10^−14 M | secreted |  |
| C[C@]12CC[C@H]3[C@@H](CCC4=CC(=O)CC[C@@]43C)[C@@H]1CC[C@@H]2O [Testosterone] | 10^−6 to 10^−14 M | secreted |  |
| B1 |  |  | Secretion of TNFα induced by MIF ([3]; MIF 0.1 μg/ml): 2.9 ± 2.4 ng/mL; Secretion of TNFα induced by MIF ([3]; MIF 1 μg/ml): 3.4 ± 2.8 ng/mL; Secretion of TNFα induced by MIF ([3]; MIF 10 μg/ml): 3.9 ± 2.8 ng/mL |
| B2 |  |  | MIF production [1]: not induced |
| B3 |  |  | MIF production [1]: not induced |
